The campaign covered roughly 150,000 compounds. About 540 (0.36%) showed an effect of 50% or more. Some of the results follow.
Tested on: Plasmodium falciparum
Assay: Primary screen in NF54 nanoGlo assay, in single point, at 2uM, 72h; a lower Z score goes with more inhibition
Format: functional, Erythrocyte
Settings: timepoint 72 hour

Compound	% Inhibition [%]	Z score
CCCNC(=O)N(Cc1cc(-c2cc(C)ccc2C)on1)C(C)C	2	-0.24
Cc1ccnc([C@@H](NC(=O)c2csc(-c3cccs3)n2)C2CC2)c1	-13	2.29
COc1cccc(-c2cc3c(n(Cc4ccccn4)c2=O)CCN(Cc2ccc(CO)o2)C3)c1	1	-0.14
COc1ccc(C)cc1NC(=O)N1CCC[C@@H]1Cn1ccnc1C	-3	0.59
Cc1cc(F)ccc1CS(=O)(=O)NC(=O)Cc1c[nH]c2ccccc12	-5	0.66
O=C(NC[C@@H]1CCCN2CCCCC12)c1ccc2scnc2c1 (stereo not given in full)	-5	0.61
CC(C)N1CCNC(=O)[C@@H]1Cc1nc(C2CCCC2)nn1CCO	-11	2.11
Cc1cccn2cc(C(=O)N[C@@H](C)c3noc(C(F)F)n3)cc12	-6	1.18
O=C(Nc1cnc(-n2cccn2)nc1)c1ccccc1Cl	-15	2.43
C[C@H](NC(=O)Nc1ccc(N2CCOCC2)c(F)c1)c1ccncc1	-10	0.94
CCc1c(C)sc(NC(C)=O)c1C#N	-36	4.25
COc1ccc(CC(=O)Nc2nn(C)c3nc4c(C)cccc4cc23)cc1	-3	0.43
Cc1cc(O)ccc1NC(=O)C[C@H](NCC(C)C)C(=O)O	4	-0.55
CNc1ccc(C(=O)NC[C@H]2CCN(Cc3ccncc3)C2)cc1	-6	0.65
N[C@@H](Cc1ccccc1)C(=O)N1CCOC2CCCCC21 (stereo not given in full)	-15	2.28
CC(=O)NC1CN(C(=O)N[C@H]2CCN(c3ccc(Cl)cc3)C2)C1	-8	1.12
Cc1ccc([C@@H]2CC(c3ccc(C)c(C)c3)=NN2C(=O)CN(C)C(=O)C2CCC2)cc1	-18	1.71
O=C(OCC(c1ccccc1)c1ccccc1)c1cccnc1	10	-1.99
COc1ccc(-c2ncnc(Oc3ccccc3OC)c2N)cc1OC	-1	0.14
Cc1nc(N(C)C)nc(-c2cccc(-c3cc[nH]n3)c2)c1C	-20	2.12
CCC(=O)N1CCc2cc(N3C[C@@H](C(=O)NCC(C)C)CC3=O)ccc21	-10	1.57
CCCCS(=O)(=O)N1CC(S(=O)(=O)CC(C)C)C1	8	-0.96

Compound	% Inhibition [%]	Z score
O=C1NC2(CCCC2)C(=O)N[C@@H]1c1ccccc1	-2	0.4
Cc1cncc(-c2csc(-c3ccco3)n2)c1	-6	1.02
Cn1c(C[C@H]2CN(C(=O)c3ccccc3)CC[C@H]2CC(=O)O)nc2ccccc21	8	-1.14
O=C(NCCO)Nc1ccc(OC(F)(F)F)c(Br)c1	28	-3.17
Cn1cc(S(=O)(=O)N(Cc2ccccc2)c2ccncc2)cn1	-10	1.97
Cc1cn(CCn2ccnc2-c2cnc(-c3ccccc3C)s2)nn1	1	-0.18
Cc1cccnc1CN(C)C1CCN(Cc2cccnc2)CC1	-7	1.23
COCCc1ccccc1NCc1ccc2c(c1)OCCO2	3	-0.44
CCOc1ccc(CN2CCc3ncsc3C2)cc1F	-1	0.19
CN(Cc1cc(-c2ccccc2)no1)C(=O)CCc1ccc(=O)[nH]n1	-10	1.32
COc1cc(C)sc1C(=O)Nc1cccc(Oc2cccnn2)c1	-23	4.08
CCC[C@H]1CN(CCOc2ccc(F)cc2)C[C@@H]1N(C)C	1	-0.14
Cc1cc(CN2C(=O)N[C@](C)(c3ccccn3)C2=O)no1	-19	1.71
CC(C)CCNC(=O)c1ccc2c(c1)nc1n2CCCC1	1	-0.23
CN1c2cc(C(=O)Nc3ccc4c(c3)OCCO4)ccc2C(=O)N2CCC[C@@H]21	6	-0.71
CC(C)c1nc(CNS(=O)(=O)c2c3c(nn2C)CCCC3)c[nH]1	-10	1.06
COCC(=O)NCC(c1ccco1)c1ccco1	0	-0.04
CNc1ccccc1CN1CCO[C@]2(CCOC2)C1	26	-2.95
c1ccc(CN2CC(c3nc(C4CC4)no3)C2)nc1	-14	2.64
O=C(Cc1cc2ccccc2o1)Nc1ccnn1[C@H]1CCOC1	-13	1.51
Cn1cnc(-c2noc(CCc3csc(N)n3)n2)c1	1	-0.09
O=c1c2ccccc2cc2n1CCCCC2	-16	1.83

Compound	% Inhibition [%]	Z score
O=C1NCCCC[C@@H]1NC(=O)N1CCN(c2nccs2)CC1	-8	1.33
CC(C)(CN[C@H]1CCN(c2ccc(Cl)c(F)c2)C1)S(C)(=O)=O	0	-0.05
CN(C)CC[C@@H](c1ccccc1)n1ccnc1-c1ccc(C(=O)O)cc1	-9	1.17
COc1cccc(C(=O)N(CC(=O)N2CCN(c3ccc(-c4ccc(Cl)cc4Cl)nn3)CC2)C2CC2)c1	-3	0.47
C[C@@H](C(=O)NCc1cccnc1-n1cnc2ccccc21)N1CCCC1	-4	0.51
C[C@@]1(c2ccncc2)CCC(=O)NC1=O	-22	2.94
CCOc1ccccc1NC(=O)Cc1c(C)nn(-c2nc(C)cs2)c1O	-5	0.66
CCc1nn(-c2ccc(OC)cc2)c(Oc2cccc(F)c2)c1CCC(=O)Nc1ccc(F)cc1	13	-2.26
COc1ccccc1CC(=O)N1CCC[C@@H]1C(=O)O	-5	0.68
CC(C)c1cc(CNC(=O)c2n[nH]c(N)c2Cl)no1	-14	1.27
O=C(NCc1ccccn1)c1ccc(CN2C(=O)NC3(CCS(=O)(=O)CC3)C2=O)cc1	1	-0.16
O=C(CCc1ccc(-c2ccccc2)o1)N1CCN(c2ccnc3cc(Cl)ccc23)CC1	-14	2.04
CC(C)c1nc([C@H]2CCCN(c3ccc(C#N)cc3F)C2)no1	4	-0.49
CCCCCOCC(=O)N1CCN(CC(F)(F)CO)CC1	-9	1.22
CCC(CC)(CO)c1nc(-c2ccncc2)no1	-7	0.64
Cn1cnc2cc(-c3noc(CCc4c[nH]c5ccccc45)n3)ccc21	-14	1.29
CC(=O)N1CCC(c2nnc(C(F)(F)F)o2)CC1	-11	1.24
COCCCCC(=O)Nc1cccc(C(F)(F)F)c1C	-7	1.17
C[C@H](O)c1ccccc1NC(=O)c1ccc(-c2ccco2)[nH]c1=O	-3	0.53
CCCc1ccc(CN2C[C@@H]3CC[C@H]2CN(Cc2c(C)noc2C)C3)o1	-10	0.95
O=C1CCCN1c1ccc(S(=O)(=O)N2CCC(c3nc4ccccc4s3)CC2)cc1	-37	4.36
CCN1CCCN(CC(=O)N2C(C)CCCC2C)CC1 (stereo not given)	3	-0.46

Compound	% Inhibition [%]	Z score
Cc1ccc2oc(N3C[C@@H](CN4CCCN(C)CC4)[C@@H](CO)C3)nc2c1	-5	0.53
CCOC(=O)CCNC(=O)Nc1nc2c(s1)CN(S(=O)(=O)c1ccccc1)CC2	-15	1.38
Cc1cc(C2(NC(=O)Nc3ccc(-c4nccc(C)n4)cc3)CCOCC2)on1	-5	0.95
COC(=O)c1c(CN2CCNC(=O)C2)nc2ccccc2c1-c1ccccc1	-17	3.26
Cc1cc(C(=O)N[C@H](c2cncc(Br)c2)C2CC2)no1	3	-0.48
Cc1cccc(O[C@H](C(=O)N(C)Cc2nnc(C)o2)C(C)C)c1	1	-0.13
Cc1n[nH]c(C2CN(C(C)C(=O)NCCc3ccccc3)CCO2)n1 (stereo not given)	-1	0.15
Cc1cccc(-n2nnc(C(=O)NCc3ccccc3C(F)(F)F)c2-c2cccnc2)c1	3	-0.4
N#CC1(c2nc(Cc3cc(F)cc(F)c3)no2)CCCC1	-2	0.37
O=C1NC(=O)[C@@H]2CN(c3ccnc4ccsc34)C[C@H]12	-9	1.71
COc1ccccc1C(=O)CN1C(=O)C(=O)N(C2CCCCC2)C1=O	-6	0.81
COc1cc(-c2cccc(C(=O)NCC[C@H]3CCOC3)c2)nc(OC)n1	-3	0.37
O=S(=O)(CCCF)NCC1CN(S(=O)(=O)c2ccccc2)C2CCN1C2 (stereo not given)	-4	0.47
CCc1cc(-c2c(C)c(-c3ccc(O)cc3)nc(N)c2C#N)[nH]n1	-13	1.65
Cc1noc([C@]23CN(C(=O)CC(C)C)C[C@H]2CN(C(=O)c2ccccc2)C3)n1	-5	0.61
O=C(c1cn2c3c(cccc3c1=O)CC2)N1CCc2ccccc2C1	6	-0.73
Cc1cc(C)nc(CCNC(=O)N2CCC3(CC2)CN(C)C(=O)CO3)n1	-7	1.47
COCC1(NC(=O)c2cccc(-c3ccc4c(cnn4C)c3)c2)CCCC1	3	-0.34
Cc1ccc(C(=O)N2C[C@@H]3C[C@H](NS(C)(=O)=O)[C@H]2C3)cc1F	-3	0.55

— ChEMBL document CHEMBL4888484, “Replenishing the malaria drug discovery pipeline: Screening and hit evaluation of the MMV Hit Generation Library 1 (HGL1) against asexual blood stage Plasmodium falciparum ,using a nano luciferase reporter read-out” (2022)
